PubChem BioAssay AID588453 (National Center for Advancing Translational Sciences (NCATS), 2011)
Among all 390,000 compounds or so, about 4,000 (1%) were called active. The inconclusive results got no clear call from the source; some entries with a clear call stand among them for comparison. Calls follow the shape of the dose curve; as a rule, active = well fitted inhibition curve with a large enough effect; inconclusive = small, poorly fitted or top-dose-only effect; inactive = no such curve, though single readings can be large or run the other way. A potency beside an inconclusive call is a rough fit, not a confirmed value.
% is scaled to controls: 0 for no effect and ±100 for the full control effect; potency is read from the fitted curve at half-maximal effect; tags tell the direction and shape of the fitted curve.
Also: nearly all actives have a fitted effect of over 65% in size.

The compounds below were run against Thioredoxin reductase 1, cytoplasmic (Rattus norvegicus) (UniProt O89049) (assay: qHTS Assay for Inhibitors of Mammalian Selenoprotein Thioredoxin Reductase 1 (TrxR1): qHTS). Details: recombinant rTrxR1, NADPH fluorescence consumption, selenite substrate; series mostly up to 114 µM.
Chain of UniProt O89049 (O89049 whole entry, looked up): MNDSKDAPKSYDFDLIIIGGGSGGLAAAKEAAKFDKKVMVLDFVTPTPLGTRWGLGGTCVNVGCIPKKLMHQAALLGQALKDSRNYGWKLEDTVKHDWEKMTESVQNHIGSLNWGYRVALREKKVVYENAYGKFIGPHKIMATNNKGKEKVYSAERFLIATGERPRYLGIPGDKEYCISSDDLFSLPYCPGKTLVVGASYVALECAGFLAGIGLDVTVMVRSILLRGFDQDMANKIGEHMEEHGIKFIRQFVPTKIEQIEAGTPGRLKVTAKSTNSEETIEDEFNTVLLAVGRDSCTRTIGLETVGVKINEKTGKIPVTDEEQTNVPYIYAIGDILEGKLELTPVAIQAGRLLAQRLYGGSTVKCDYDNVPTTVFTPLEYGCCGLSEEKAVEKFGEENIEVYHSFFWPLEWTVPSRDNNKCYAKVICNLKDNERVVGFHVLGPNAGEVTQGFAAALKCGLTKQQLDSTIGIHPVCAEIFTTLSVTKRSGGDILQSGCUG
Summary of the method: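 Rat TrxR1 (90 nM in the dispensed reagent) was pre-reduced with 400 uM NADPH for 5 min at room temperature, then incubated with compound for 15 min. After 400 uM selenite was added, NADPH fluorescence (Ex 340/Em 450 nm) was followed for 8 min.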
In the case of `CC(C)N(Cc1ccccc1)C(=O)CCS(=O)(=O)c1ccc2c(c1)oc(=O)n2C`, the Potency is reported as “inactive”.
With `CCCCNC(=O)/C(=C\c1ccc([N+](=O)[O-])o1)NC(=O)c1ccccc1` the Potency was inconclusive: 28.2 µM [inhibitor, partial curve, poor fit].
With `CCCCNC(=O)CSc1nnc(C)c2c(C)n(-c3ccccc3)nc12` the Potency was “inactive”.
`CCOC(=O)CSc1nnc(-c2ccco2)n1-c1ccccc1` was tested, and the Potency was inconclusive: 39.8 µM [inhibitor, partial curve, poor fit].
`COc1cc(C(=O)N/N=C(\Cc2ncc[nH]2)c2ccccc2)cc(OC)c1OC` was tested, and the Potency was “inactive”.
`CCCCC1=CC2=C(c3ccco3)C(=O)C(C)(OC(=O)c3ccc(OC)cc3)C(=O)C2=CN1CCCCO` (stereo not drawn) was tested, and the Potency was inconclusive: 79.4 µM [inhibitor, single point].
In the case of `Cc1ccc(NC(=S)/C(=C(\[O-])c2ccc(Cl)s2)[n+]2cccc(CO)c2)cc1C`, the Potency is reported as “inactive”.
In the case of `COc1ccccc1NC(=O)C1CCN(C(=O)c2ccco2)CC1`, the Potency is reported as “inactive”.
`NS(=O)(=O)c1ccc(NC(=O)COc2ccc(C(=O)c3ccc(F)cc3)cc2)cc1` was tested, and the Potency was inconclusive: 89.1 µM [inhibitor, partial curve, poor fit].
`CC1(C)C2CCC1(C)C(NC(=O)COC(=O)c1ccc(S(C)(=O)=O)c([N+](=O)[O-])c1)C2` (stereo not drawn) was tested, and the Potency was active: 3.55 µM.
For `O=C(N/N=C/c1cc(Br)c(Br)o1)c1cccnc1`, the Potency was inconclusive: 56.2 µM [inhibitor, partial curve, poor fit].
In the case of `COc1ccc(S(=O)(=O)NNC(=O)c2ccc(-n3c(C)ccc3C)cc2)cc1`, the Potency is reported as inconclusive: 79.4 µM [inhibitor, partial curve].
In the case of `Cc1ccc(NC(=O)c2ccc(NCCc3ccccc3)c([N+](=O)[O-])c2)cc1F`, the Potency is reported as inconclusive: 89.1 µM [inhibitor, single point].
`NS(=O)(=O)c1ccc(N/N=C/c2cn(-c3ccccc3)nc2-c2cccs2)cc1` was tested, and the Potency was inconclusive: 79.4 µM [inhibitor, single point].
For `COC(=O)Cn1c(=O)c(C(=O)CCl)c(N)n(Cc2ccccc2)c1=O`, the Potency was inconclusive: 10 µM [inhibitor, full curve].
With `Cc1cc(-n2[nH]c(C)c(C)c2=O)nc(-c2ccccc2O)n1` the Potency was inconclusive: 11.2 µM [inhibitor, full curve, poor fit].
For `CC(=O)Nc1ccc(NC(=S)Nc2ccc(Br)cc2)cc1`, the Potency was inconclusive: 35.5 µM [inhibitor, partial curve].
`CC1(C)CCN2CCC(C)(C)c3c(O)ccc1c32` was tested, and the Potency was inconclusive: 63.1 µM [inhibitor, partial curve, poor fit].
For `CCC(Sc1nc2nccnc2c(=O)n1Cc1ccc(OC)cc1)C(=O)NC1CCCCC1` (stereo not drawn), the Potency was “inactive”.
In the case of `Cc1ccc2cc3cc(C(=O)NCCCN4CC(C)CC(C)C4)oc3nc2c1` (stereo not drawn), the Potency is reported as inconclusive: 70.8 µM [inhibitor, partial curve].
For `COc1cccc(-n2ccn(CC(=O)c3ccc(F)cc3)c(=O)c2=O)c1`, the activity change, negative = inhibition was inactive: 38.9% [at 11.4 µM].
With `C=C1CCN([C@@H](CC(C)C)C(=O)NN2CCOCC2)S(=O)(=O)c2ccccc21` the Potency was inconclusive: 89.1 µM [inhibitor, partial curve, poor fit].
In the case of `Cc1ccc2nc(CNC(=O)c3ccccc3)[nH]c2c1`, the Potency is reported as “inactive”.
For `Cc1ccc(S(=O)(=O)CCC(=O)c2cccc([N+](=O)[O-])c2)cc1`, the Potency was inconclusive: 0.316 µM [inhibitor, full curve, poor fit].
With `CCCCCCSc1ccc([C@H]2N[C@@](C)(C(=O)OC)[C@H]3C(=O)N(C)C(=O)[C@@H]23)cc1` the Potency was “inactive”.
`CC(C)(C)OC(=O)NCCCCCNC(=O)c1nc[nH]c1C(=O)NCc1ccc(CNC(=O)OC(C)(C)C)cc1` was tested, and the Potency was “inactive”.
`CCOC(=O)CNCCC(=O)c1ccc(Br)cc1` was tested, and the Potency was active: 0.282 µM.
For `Cc1ccc(CC(=O)Nc2ccc(OC(F)F)c(Cl)c2)cc1C`, the Potency was inconclusive: 0.708 µM [inhibitor, partial curve, poor fit].
`O=C(NC(=S)Nc1ccc(Cc2ccncc2)cc1)c1ccc(F)cc1` was tested, and the Potency was inconclusive: 39.8 µM [inhibitor, full curve].
For `CS/C(Nc1cc(Cl)ccc1Cl)=C(/C#N)C(=O)c1ccco1`, the Potency was inconclusive: 12.6 µM [inhibitor, partial curve].
With `O=C1c2cccc3cc([N+](=O)[O-])cc(c23)C(=O)N1/N=C/c1ccc(O)cc1O` the Potency was “inactive”.
With `C/C(=N\Nc1ccc(F)cc1)c1ccc(N2CCOCC2)c(F)c1` the Potency was inconclusive: 44.7 µM [inhibitor, partial curve].
With `CCOC(=O)N1CCN(C(=O)c2ccc3c(c2)N(Cc2ccc(F)cc2)CCS3)CC1` the Potency was “inactive”.
`Cc1c(C(=O)NCCc2ccc(Cl)cc2)sc2nc3n(c(=O)c12)CCCC3` was tested, and the Potency was inconclusive: 89.1 µM [inhibitor, single point].
In the case of `C=C1C(=O)C23C(O)C1CCC2C12CCCC(C)(COC(C)=O)C1C(O)C3(O)OC2` (stereo not drawn), the Potency is reported as active: 7.08 µM.
For `CC1(C)Cc2c(c(-c3ccco3)[nH]c(=O)c2C#N)CS1`, the Potency was inconclusive: 35.5 µM [inhibitor, single point].
`O=C(CCN1C(=O)S/C(=C\c2ccc(F)cc2)C1=O)Nc1ccc(C(=O)O)c(O)c1` was tested, and the Potency was “inactive”.
With `CC1=C(C(=O)Nc2ccccc2)C(c2cccs2)C(C#N)=C(SCC#N)N1` (stereo not drawn) the Potency was inconclusive: 44.7 µM [inhibitor, partial curve, poor fit].
`CC1CCCCN1C(=O)COC(=O)c1cc(Cl)c2c(c1)OCO2` (stereo not drawn) was tested, and the Potency was “inactive”.
With `O=C(Nc1ccc(-n2cccn2)cc1)C1CCN(Cc2ccccn2)CC1` the Potency was inconclusive: 89.1 µM [inhibitor, partial curve, poor fit].
In the case of `Cc1ccc(S(=O)(=O)Nc2cc(Cl)c(O)c3ncccc23)cc1`, the Potency is reported as inconclusive: 39.8 µM [inhibitor, partial curve, poor fit].
With `COCCN(C(=O)COC(=O)/C=C/c1nc2ccccc2s1)c1c(N)n(Cc2ccccc2)c(=O)[nH]c1=O` the Potency was inconclusive: 11.2 µM [inhibitor, partial curve, poor fit].
`CS(=O)(=O)Nc1ccc(C2=NN(C(=O)c3ccccc3)C(c3cccs3)C2)cc1` (stereo not drawn) was tested, and the Potency was “inactive”.
`COc1ccc(NC(=S)NCCCn2ccnc2)cc1` was tested, and the Potency was inconclusive: 25.1 µM [inhibitor, full curve, poor fit].
With `c1ccc(OCc2nn3c(-c4ccco4)nnc3s2)cc1` the Potency was active: 56.2 µM.
For `O=C(c1ccccc1)n1nnc2ccccc21`, the Potency was active: 5.01 µM.
`CC(CC(=O)N1CCN(c2cccc(Cl)c2)CC1)S(=O)(=O)c1ccc2c(c1)NC(=O)CO2` (stereo not drawn) was tested, and the Potency was “inactive”.
With `CCCOc1ccccc1C(=O)N(Cc1ccc(C)o1)C1CCS(=O)(=O)C1` (stereo not drawn) the Potency was inconclusive: 70.8 µM [inhibitor, partial curve].
For `COc1cccc(CNCc2cccc(Br)c2)c1OC`, the Potency was inconclusive: 35.5 µM [inhibitor, single point].
`COc1cc(C(C[N+](=O)[O-])c2c(C)[nH]c3ccccc23)ccc1O` (stereo not drawn) was tested, and the Potency was inconclusive: 56.2 µM [inhibitor, partial curve, poor fit].
With `CN(C)C(CNS(=O)(=O)c1cc([N+](=O)[O-])ccc1Cl)c1ccco1` (stereo not drawn) the Potency was inconclusive: 44.7 µM [inhibitor, partial curve].
With `COc1ccc(NC(=S)N/C(=N/CS(=O)(=O)c2ccccc2)c2ccccc2)cc1` the Potency was inconclusive: 2.82 µM [inhibitor, full curve].
In the case of `CC1CCCN(c2ccc(C(=O)Nc3ccc4c(c3)OCO4)cc2[N+](=O)[O-])C1` (stereo not drawn), the Potency is reported as “inactive”.
With `COc1ccc(NC(=S)NN2C(C)CCCC2C)cc1` (stereo not drawn) the Potency was inconclusive: 50.1 µM [inhibitor, partial curve].
`Cc1ccc(/C=C2/NC(=O)N(Cc3ccccc3F)C2=O)s1` was tested, and the Potency was inconclusive: 79.4 µM [inhibitor, single point].
With `COc1ccc(-c2nc(S(=O)(=O)c3ccc(C)cc3)c(N3CCCC3)o2)cc1` the Potency was inconclusive: 10 µM [inhibitor, partial curve].
For `CCOc1ccc(OCC)c(NC(=O)CN2CCN(C(=O)c3ccco3)CC2)c1`, the Potency was inconclusive: 28.2 µM [inhibitor, partial curve, poor fit].
`CCc1cccc(NC(=O)CSC2=NS(=O)(=O)c3ccccc32)c1` was tested, and the Potency was active: 3.16 µM.
`CCOc1ccc(Nc2n[nH]c(=S)s2)cc1` was tested, and the Potency was inconclusive: 70.8 µM [inhibitor, partial curve].
With `COc1ccc(C(=O)Nc2cccc(/C=C/c3nc4ccccc4c(=O)[nH]3)c2)cc1` the Potency was “inactive”.
With `C/C(CC(=O)Nc1ccc2ccccc2c1)=N\NC(=O)c1cnccn1` the Potency was inconclusive: 50.1 µM [inhibitor, partial curve].
With `CC(/C=C1\SC(=S)N(CC(=O)O)C1=O)=C\c1ccccc1` the Potency was “inactive”.
For `O=C(CSc1nnc(C2CCCCC2)n1-c1ccccc1)NCc1ccco1`, the Potency was active: 12.6 µM.
With `CCOC(=O)C[C@H]1c2ccc(C(F)(F)F)cc2S(=O)(=O)N1c1ccccc1` the Potency was inconclusive: 89.1 µM [inhibitor, partial curve, poor fit].
In the case of `Cc1ccc(-c2cc(-c3ccc(Cl)cc3)c(C#N)c(N)n2)o1`, the Potency is reported as active: 50.1 µM.
In the case of `Cc1c(C)c2c(c(C)c1O)CCC(C)(CN1CCN(c3cc(N4CCCC4)nc(N4CCCC4)n3)CC1)O2` (stereo not drawn), the Potency is reported as “inactive”.
For `CCC(NC(=O)Nc1nnc(C(F)(F)F)s1)(C(F)(F)F)C(F)(F)F`, the Potency was “inactive”.
With `COc1ccccc1CCNC(=O)Cc1c(C)c2ccc(O)cc2oc1=O` the Potency was inconclusive: 56.2 µM [inhibitor, partial curve].
